Results from the supplement of paper PMC3334620.
The full ranking holds about 33,000 sequences; the median of “E-score (-0.5 to 0.5)” is about -0.054, and the highest 2% start at about 0.39. The list shows a part of the results.

molecular target: Ylr278c (UniProt Q05854); test: PBM E-score (8-mer binding enrichment) (E-score (-0.5 to 0.5)); higher = stronger / more preferred TF binding; most listed sequences are background and not binding sites; settings: protein concentration: 200 nM; construct: GST-DNA-binding domain
Protocol: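 Universal 'all 10-mer' protein binding microarrays (Agilent AMADID 015681) probed with GST-tagged S. cerevisiae TFs (full-length or DBD) made by in vitro transcription/translation (PURExpress), about 100-200 nM. Bound TF was detected with fluorescent anti-GST. Each ungapped 8-mer (which stands for itself and its reverse complement) is scored by the PBM enrichment score (E-score), a modified Wilcoxon-Mann-Whitney statistic from -0.5 to +0.5, computed with the Universal PBM Analysis Suite. Scale: above 0.35 generally sequence-specific binding.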

Row | Sequence | PBM E-score
1 | GAGGTGTA | -0.0186
2 | CAAGGGTG | -0.154
3 | GGAACGAA | 0.104
4 | ACCCCTTA | -0.0547
5 | GTGTAAGA | -0.283
6 | CTACCGTC | 0.0115
7 | CTAGAGAG | -0.282
8 | GCTTCGAA | -0.0463
9 | CTGCGCGA | 0.0109
10 | ATATGTGG | -0.192
11 | AGACAACT | -0.0993
12 | GCCTTTAA | -0.0909
13 | AATTCGGC | 0.157
14 | CGTCATAC | 0.0109
15 | GAGAGAGA | 0.007
16 | CCGTCCCA | 0.0276
17 | ATGATAAT | -0.0445
18 | ATGCTCGA | -0.158
19 | GGCCTGGA | -0.221
20 | CACAAGTC | -0.191
21 | ACGGATAC | 0.171
22 | CTTTGACA | -0.187

Row | Sequence | PBM E-score
23 | CACCAGCC | 0.00847
24 | CTTCGCAA | 0.0428
25 | GGGCCATA | 0.122
26 | TATAGCGA | -0.165
27 | AAACATGA | -0.183
28 | TCTCTTAA | -0.0612
29 | ACCGGTAG | 0.165
30 | GATGGGTA | -0.191
31 | AAAGTGGC | -0.105
32 | GCTCATAA | -0.0411
33 | ATCAGGTC | -0.107
34 | AATAATCG | -0.0135
35 | AGTGTCCC | 0.0686
36 | ATCTTCCA | -0.167
37 | GCGACTAA | -0.0449
38 | CGGTTGTC | 0.123
39 | GCCTGTAA | -0.147
40 | ATATCTAC | -0.0303
41 | AGCTCGAC | -0.155
42 | CCCAGGCC | -0.141
43 | ATTACCTA | 0.0463
44 | AGTTATAG | -0.215

Row | Sequence | PBM E-score
45 | ACGTTTGA | 0.0559
46 | GCCAGAAC | -0.0889
47 | CTTGGCAC | -0.22
48 | CGGGTAGC | 0.0113
49 | ATATAGCC | 0.0283
50 | CTTGGCCA | -0.181
51 | AGCTTTAC | -0.146
52 | AGGAAGAA | -0.122
53 | GAAAGAAC | 0.00616
54 | ACGGGGAC | 0.152
55 | CGTTGACA | -0.25
56 | GCCCAGCA | -0.00582
57 | AGTGAGAG | -0.0943
58 | CAGAGACG | -0.0283
59 | AGATAACC | 0.0637
60 | ACTACCAA | -0.0721
61 | ACCGCGGA | 0.407
62 | CCCACAGA | -0.299
63 | GTGGTGGA | -0.048
64 | ATCAGATA | -0.0877
65 | CGGATAGA | 0.25
66 | AGACTAGG | -0.17

Row | Sequence | PBM E-score
67 | ATCTTAGG | -0.174
68 | AACCTCGT | -0.0144
69 | GGTACCTA | -0.24
70 | CGATTAGA | 0.043
71 | CGACTGAA | 0.0381
72 | CTGTACTC | -0.173
73 | ACCCCCCA | -0.245
74 | CGCTCCGA | 0.432
75 | ACAATGGA | 0.0428
76 | ACGCTTCC | 0.141
77 | GAAAGATA | -0.0447
78 | GGTGGCCA | -0.164
79 | AATCCGAC | 0.402
80 | CGTACTAA | 0.0171
81 | AGTGGGCG | -0.00249
82 | CAAGCGTG | -0.176
83 | TCTATACA | -0.202
84 | GACTAAAC | -0.0103
85 | CAAAACCG | 0.148
86 | GATCGAGA | -0.0882
87 | AGACAGAG | -0.172
88 | ATGCAGCC | -0.131

Row | Sequence | PBM E-score
89 | CGGAATGA | 0.33
90 | AAGCGAGG | -0.0923
91 | CGACACAC | 0.0181
92 | ATACGGTC | 0.0287
93 | ATTGCGCA | 0.143
94 | ATTGGTTC | 0.0775
95 | GGACTCGA | 0.0117
96 | TACCACGA | -0.214
97 | CGAAGCTC | 0.0309
98 | GGCTTCTA | -0.158
99 | ACACCACC | -0.00359
100 | GCCATTCC | 0.177
101 | ATTCTGTG | 0.054
102 | GACCGCTA | 0.0583
103 | TAACATAA | -0.0831
104 | CCTTCATC | -0.0422
105 | GGTATAAA | 0.121
106 | GAATGCTA | -0.114
107 | CGGCAACC | 0.257
108 | AGGGAAAT | -0.104
109 | ACTACTTC | -0.0303
110 | CAGTCTAC | -0.108
